Measurements published in patent publication US20230310557A1 (ATB THERAPEUTICS, published 2023).

T1: CD79b on target cells (JEKO, OCY-LY3, BJAB, WSU-DLCL2) (human, UniProt P40259 29-229)
T1 sequence: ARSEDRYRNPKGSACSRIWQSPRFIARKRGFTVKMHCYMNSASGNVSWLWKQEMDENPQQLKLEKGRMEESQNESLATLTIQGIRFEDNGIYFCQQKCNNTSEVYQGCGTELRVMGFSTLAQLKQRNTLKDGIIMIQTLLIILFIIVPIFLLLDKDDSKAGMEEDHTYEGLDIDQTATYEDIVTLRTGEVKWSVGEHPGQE

B1: ATB 221 (Fc fusion)
chain: EVQLVESGGGLVQPGGSLRLSCAASGYTFSSYWIEWVRQAPGKGLEWIGEILPGGGDTNYNEIFKGRATFSADTSKNTAYLQMNSLRAEDTAVYYCTRRVPIRLDYWGQGTLVTVSSGGGGSGGGGSGGGGSDIQLTQSPSSLSASVGDRVTITCKASQSVDYEGDSFLNWYQQKPGKAPKLLIYAASNLESGVPSRFSGSGSGTDFTLTISSLQPEDFATYYCQQSNEDPLTFGQGTKVEIKAS[human IgG1 Fc and a few adjoining residues not written out]RHRQPRGWEQLAVTWTCLNDQKNPKTNKYETKRLLYNQNKAESNSHHAPLSDGKTGSSYPHWFTNGYDGDGKLPKGRTPIKFGKSDCDRPPKHSKDGNGKTDHYLLEFPTFPDGHDYKFDSKKPKENPGPARVIYTYPNKVFCGIIAHTKENQGELKLCSH
B2: ATB 229 (Fc fusion)
chain: EVQLVESGGGLVQPGGSLRLSCAASGYTFSSYWIEWVRQAPGKGLEWIGEILPGGGDTNYNEIFKGRATFSADTSKNTAYLQMNSLRAEDTAVYYCTRRVPIRLDYWGQGTLVTVSSGGGGSGGGGSGGGGSDIQLTQSPSSLSASVGDRVTITCKASQSVDYEGDSFLNWYQQKPGKAPKLLIYAASNLESGVPSRFSGSGSGTDFTLTISSLQPEDFATYYCQQSNEDPLTFGQGTKVEIKAS[human IgG1 Fc and a few adjoining residues not written out]GNRVRRSVGAVTWTCLNDQKNPKTNKYETKRLLYNQNKAESNSHHAPLSDGKTGSSYPHWFTNGYDGDGKLPKGRTPIKFGKSDCDRPPKHSKDGNGKTDHYLLEFPTFPDGHDYKFDSKKPKENPGPARVIYTYPNKVFCGIIAHTKENQGELKLCSH

Target: T1, CD79b on target cells (JEKO, OCY-LY3, …)
Assay: cell-based or functional assay

Row | Binder | cell viability IC50 (Cell Titer Glo, 72 h), JEKO cells
1 | B1 | 0.141 nM
2 | B2 | 0.0637 nM
